In test [1] the target is T1, Human CD38 (UniProtKB-P28907), expressed on the cell surface (human, UniProt P28907 1-300). Put plainly: cell-based or functional assay.
For test [2], the target named is T1, Human CD38 (UniProtKB-P28907), …. Put plainly: cell-based or functional assay. This is another data set of the same source.
The target is the same in test [3]. Put plainly: cell-based or functional assay. The source holds these as a separate data set.
The target of test [4] is T2, Cynomolgus CD38 expressed on cynomolgus PBMCs (cynomolgus, UniProt Q5VAN0 1-301).
T2 construct: whole, on cells
Put plainly: flow cytometry on cynomolgus PBMCs. Background: Flow cytometry measures light scatter and fluorescence of single cells or particles in a stream.

Where two headings read alike, the source gives them in different places. Where only a bound is given, the exact number is not on record here.

B1: IgG1-C (antibody)
heavy: QVQLVQSGAEVKKPGSSVKVSCKAFGGTFSSYAISWVRQAPGQGLEWMGRIIRFLGIANYAQKFQGRVTLIADKSTNTAYMELSSLRSEDTAVYYCAGEPGERDPDAVDIWGQGTMVTVSSASTKGPSVFPLAPSSKSTSGGTAALGCLVKDYFPEPVTVSWNSGALTSGVHTFPAVLQSSGLYSLSSVVTVPSSSLGTQTYICNVNHKPSNTKVDKRV[not shown - human IgG1 Fc]
light: [not shown - about 200 residues]
B1: in test [1], the “CDC, percent lysis of Ramos and Daudi cells” value is roughly 50%. Also, in test [2], the “CDC, EC50 of lysis, Daudi cells” value is 0.25 µg/mL; the “CDC, EC50 of lysis, Ramos cells” value came to 0.158 µg/mL; the “CDC, EC50 of lysis, Wien-133 cells” value is 0.193 µg/mL.

B2: IgG1-C-E430G (antibody)
heavy: QVQLVQSGAEVKKPGSSVKVSCKAFGGTFSSYAISWVRQAPGQGLEWMGRIIRFLGIANYAQKFQGRVTLIADKSTNTAYMELSSLRSEDTAVYYCAGEPGERDPDAVDIWGQGTMVTVSSASTKGPSVFPLAPSSKSTSGGTAALGCLVKDYFPEPVTVSWNSGALTSGVHTFPAVLQSSGLYSLSSVVTVPSSSLGTQTYICNVNHKPSNTKVDKRV[not shown - human IgG1 Fc with E430G (EU numbers)]
light: [not shown - about 200 residues]
notes: also called IgG-C-E430G
In the case of B2, the “CDC, percent lysis of Ramos and Daudi cells” value in test [1] was no more than 100%. Also, in test [2], the “CDC, EC50 of lysis, Daudi cells” value was 0.019 µg/mL; the “CDC, EC50 of lysis, NALM-16 cells” value came to 0.022 µg/mL; the “CDC, EC50 of lysis, REH cells” value amounted to 0.017 µg/mL; the “CDC, EC50 of lysis, RS4; 11 cells” value was found to be 0.056 µg/mL. For the same molecule, in test [2], the “CDC, EC50 of lysis, Ramos cells” value worked out at 0.014 µg/mL; the “CDC, EC50 of lysis, U266 cells” value was determined as 0.052 µg/mL; the “CDC, EC50 of lysis, Wien-133 cells” value amounted to 0.015 µg/mL. In test [3], the “CDC, EC50 of lysis, 697 cells” value turned out to be 0.087 µg/mL; the “CDC, EC50 of lysis, AML-193 cells” value was 0.032 µg/mL; the “CDC, EC50 of lysis, DOHH2 cells” value turned out to be 0.115 µg/mL; the “CDC, EC50 of lysis, Daudi cells” value came out at 0.03 µg/mL. For the same molecule, in test [3], the “CDC, EC50 of lysis, HL-60 cells” value came to 0.07 µg/mL; the “CDC, EC50 of lysis, JVM-3 cells” value came out at 0.11 µg/mL; the “CDC, EC50 of lysis, JVM-13 cells” value is 0.146 µg/mL; the “CDC, EC50 of lysis, Jeko-1 cells” value was found to be 0.108 µg/mL. For the same molecule, in test [3], the “CDC, EC50 of lysis, KG-1 cells” value was found to be 0.104 µg/mL; the “CDC, EC50 of lysis, MEGAL cells” value worked out at 0.17 µg/mL; the “CDC, EC50 of lysis, ML-2 cells” value came out at 0.023 µg/mL; the “CDC, EC50 of lysis, MOLM-13 cells” value is 0.017 µg/mL. For the same molecule, in test [3], the “CDC, EC50 of lysis, NALM-16 cells” value turned out to be 0.022 µg/mL; the “CDC, EC50 of lysis, Nomo-1 cells” value was 0.039 µg/mL; the “CDC, EC50 of lysis, Oci-AML3 cells” value is 0.046 µg/mL; the “CDC, EC50 of lysis, Oci-Ly18 cells” value turned out to be 0.057 µg/mL. Besides, in test [3], the “CDC, EC50 of lysis, Oci-Ly-7 cells” value worked out at 0.012 µg/mL; the “CDC, EC50 of lysis, Oci-Ly-19 cells” value was found to be 0.031 µg/mL; the “CDC, EC50 of lysis, REH cells” value worked out at 0.039 µg/mL; the “CDC, EC50 of lysis, RS4; 11 cells” value was 0.093 µg/mL. Besides, in test [3], the “CDC, EC50 of lysis, Raji cells” value amounted to 0.036 µg/mL; the “CDC, EC50 of lysis, Ramos cells” value amounted to 0.013 µg/mL; the “CDC, EC50 of lysis, SU-DHL-4 cells” value was 0.073 µg/mL; the “CDC, EC50 of lysis, SU-DHL-8 cells” value amounted to 0.009 µg/mL. In addition, in test [3], the “CDC, EC50 of lysis, THP-1 cells” value is 0.075 µg/mL; the “CDC, EC50 of lysis, U266 cells” value was determined as 0.052 µg/mL; the “CDC, EC50 of lysis, U937 cells” value came to 0.057 µg/mL; the “CDC, EC50 of lysis, WSU-DLCL2 cells” value was determined as 0.345 µg/mL. Besides, in test [3], the “CDC, EC50 of lysis, Wien133 cells” value came out at 0.015 µg/mL; the “CDC, EC50 of lysis, Z-138 cells” value worked out at 0.106 µg/mL; the “CDC, EC50 of lysis, monomac6 cells” value came out at 0.093 µg/mL. For the same molecule, in test [4], the binding result is listed as “no binding (tested: 0.005-10 µg/mL)”.

The values above are taken from US20200017600A1 (Genmab, published 2020).
